Results published in paper PMC4336329 (PLoS ONE, 2015).
About 2,200 (0.71%) of roughly 310,000 compounds showed an effect of 50% or more. Effects have a minus sign here. The list shows a part of the results.

The compounds below were run against human ether-à-go-go-related gene (hERG) potassium channel (human, UniProt Q12809) (assay: primary screen, population patch clamp on CHO cells stably expressing hERG).
Chain of human ether-à-go-go-related gene (hERG) potassium channel (Q12809 whole entry, looked up): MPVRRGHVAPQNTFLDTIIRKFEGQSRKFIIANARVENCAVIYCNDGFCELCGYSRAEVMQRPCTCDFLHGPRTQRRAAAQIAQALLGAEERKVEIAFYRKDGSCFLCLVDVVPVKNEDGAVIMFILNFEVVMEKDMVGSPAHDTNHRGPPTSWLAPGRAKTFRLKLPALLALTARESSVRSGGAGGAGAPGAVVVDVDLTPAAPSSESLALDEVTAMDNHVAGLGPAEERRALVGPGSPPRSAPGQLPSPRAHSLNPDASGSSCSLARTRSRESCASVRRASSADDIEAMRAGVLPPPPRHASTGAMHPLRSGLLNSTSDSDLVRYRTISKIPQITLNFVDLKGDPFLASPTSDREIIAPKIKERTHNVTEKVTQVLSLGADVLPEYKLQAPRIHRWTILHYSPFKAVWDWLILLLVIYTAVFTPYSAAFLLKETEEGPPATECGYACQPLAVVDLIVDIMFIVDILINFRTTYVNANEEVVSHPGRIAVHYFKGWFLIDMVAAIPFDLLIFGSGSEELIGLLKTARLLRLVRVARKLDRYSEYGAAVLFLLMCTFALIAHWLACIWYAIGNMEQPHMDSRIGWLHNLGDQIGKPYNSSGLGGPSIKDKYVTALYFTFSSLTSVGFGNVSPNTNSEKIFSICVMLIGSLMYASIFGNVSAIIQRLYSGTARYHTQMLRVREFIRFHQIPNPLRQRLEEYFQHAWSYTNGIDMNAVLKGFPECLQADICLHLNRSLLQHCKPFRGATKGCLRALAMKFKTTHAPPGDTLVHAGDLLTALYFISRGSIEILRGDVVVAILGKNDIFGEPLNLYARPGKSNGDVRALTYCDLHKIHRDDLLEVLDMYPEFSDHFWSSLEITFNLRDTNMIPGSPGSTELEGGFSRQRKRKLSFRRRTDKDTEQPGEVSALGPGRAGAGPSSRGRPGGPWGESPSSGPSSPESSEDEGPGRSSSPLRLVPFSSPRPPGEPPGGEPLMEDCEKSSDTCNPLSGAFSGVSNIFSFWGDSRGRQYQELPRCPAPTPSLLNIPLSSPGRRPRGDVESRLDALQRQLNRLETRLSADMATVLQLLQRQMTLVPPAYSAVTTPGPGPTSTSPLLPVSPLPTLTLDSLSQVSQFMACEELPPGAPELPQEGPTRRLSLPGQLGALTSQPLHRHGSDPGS

Row | SMILES | hERG current change (%, negative = inhibition) at 1uM
1 | CCOc1cc(C2NC(=S)NC(C)=C2C(=O)Nc2ccccc2)ccc1O (stereo not drawn) | 12.3%
2 | COC(=O)C1CCN(C(=O)COC(=O)c2cccc(NS(=O)(=O)c3ccccc3)c2)CC1 | 9.32%
3 | CCCc1[nH]nc2c1C(C1CC=CCC1)C(C#N)=C(N)O2 (stereo not drawn) | 3.02%
4 | COc1ccc2c(c1)c1nc3ccccc3nc1n2CCn1c(=O)oc2ccccc21 | 13.6%
5 | CCOC(=O)C1C(c2ccccc2)C(C(=O)OCC)C1c1ccccc1 (stereo not drawn) | 11.2%
6 | Cc1ccc(S(=O)(=O)NC(=O)COc2ccc(Cl)cc2Cl)cc1 | 19.1%
7 | COc1cc(C(=O)Nc2ccc3c(c2)CCCN3C(=O)c2ccco2)c([N+](=O)[O-])cc1OC | -1.57%
8 | O=C(N/N=C/c1ccccn1)c1cccs1 | 10.5%
9 | CC(=O)NC(=S)Nc1ccccc1C(=O)Nc1ccccc1 | 12.7%
10 | CCc1ccc(C(=O)N2CCCN(C)CC2)s1 | 20.6%
11 | CC(C)CC1c2[nH]c3ccccc3c2CCN1CCCn1cccn1 (stereo not drawn) | -19.2%
12 | Cc1ccc2ncnc(-c3ccccc3)c2c1 | 13.7%
13 | Cc1ccccc1NC(=O)c1sc(Cl)nc1-c1ccccc1 | -0.762%
14 | O=C(NC1CCCCCCC1)c1ccccc1O | 0.219%
15 | CCOC(=O)Nc1ccc(NC(=O)OCC)cc1 | 12.6%
16 | Cc1ccc(C)c(NC(=O)C2(C)CC3c4ccccc4C2c2ccccc23)c1 (stereo not drawn) | 5.14%
17 | CC(C)(C)OC(=O)N1CCC[C@H]1C(=O)N/N=C/c1cccc2nccnc12 | -5.32%
18 | COc1ccc2nc(-c3ccccc3)cc(OC)c2c1 | 12.6%
19 | O=C(c1ccc2ccccc2c1)N1CCN(c2ccc([N+](=O)[O-])c(N3CCOCC3)c2)CC1 | -0.245%
20 | O=C(NCc1ccccn1)c1ccc2ccccc2n1 | 8.56%
21 | CC(C)c1ccc(NC(=O)CSc2nnc(CN3CCOCC3)n2C)cc1 | 18.9%
22 | NC(=S)N/N=C/c1c(O)ccc2ccccc12 | 11%

Row | SMILES | hERG current change (%, negative = inhibition) at 1uM
23 | CCOc1ccc(N(CC(=O)N2CCCC2)S(=O)(=O)c2c(C)noc2C)cc1 | 10.2%
24 | O=C(CSc1nc(=O)n(CCCN2CCOCC2)c2c1CCC2)Nc1cccc(F)c1 | -0.0072%
25 | CN(CC(=O)Nc1ccc(F)cc1)C(=O)COC(=O)/C=C/c1ccc(OC(F)F)cc1 | -10.2%
26 | C=CCN(CC=C)S(=O)(=O)c1ccc(C(=O)Nc2sc3c(c2C(N)=O)CCCCC3)cc1 | 12.7%
27 | CSc1ccc(S(=O)(=O)NCC(=O)OCC(=O)N(Cc2ccccc2)C(C)C)cc1[N+](=O)[O-] | 0.595%
28 | COc1ccc(S(=O)(=O)Nc2cc(C(=O)NCCC(C)C)ccc2N2CCOCC2)cc1 | 7.3%
29 | Cc1ccc(C)c(S(=O)(=O)N2CCN(C(=O)Nc3ccccc3)CC2)c1 | 6.95%
30 | CCN1C(=O)[C@H]2[C@@H](c3ccc(-c4ccc(OC)cc4)c(OC)c3)N[C@@](C)(C(=O)OC)[C@H]2C1=O.O=C(O)C(F)(F)F | 11.2%
31 | COc1cccc(Nc2ncc(C(=O)O)c3ccccc23)c1 | 9.2%
32 | Cc1nc2cc(F)ccc2n1C1CCN(C(=O)c2ccc(F)cc2F)CC1 | -4.37%
33 | CN1CCN(C(=O)c2cc(-c3ccccc3)on2)CC1 | 6.94%
34 | CC(/C=C/c1ccco1)=N\NC(=O)C(O)c1ccccc1 (stereo not drawn) | 5.19%
35 | Fc1ccc(-c2nc(-c3cnccn3)no2)c(Cl)c1 | 11%
36 | Cc1cc(Cl)ccc1OC(C)C(=O)NNC(=O)C1CCCCC1C(=O)O (stereo not drawn) | 7.09%
37 | O=C(Cc1ccc(F)cc1)OCC(=O)c1cc2ccccc2o1 | 4.28%
38 | COc1ccccc1NS(=O)(=O)c1cccc(C(=O)NCc2ccncc2)c1 | 14.4%
39 | CC(C)(C)c1ccc(-c2cnco2)cc1 | -20.6%
40 | Cc1cc(C)c(C)c(OCC(=O)NCc2nc(-c3ccccc3)no2)c1 | 9.52%
41 | Cc1ccc(C(=O)O/N=C/c2ccc(N(C)C)cc2)cc1 | 14.7%
42 | CCOC(=O)CN1C(=O)C(=O)N(Cc2c(C)cc(C)cc2C)C1=O | 8.67%
43 | COc1ccc(-c2nnc(SCCOc3cccc(C)c3)n2N)cc1 | 8.28%
44 | COc1ccc2nc(NC(=O)Cc3ccc(OC)c(S(=O)(=O)N4CCOCC4)c3)sc2c1 | 8.97%

Row | SMILES | hERG current change (%, negative = inhibition) at 1uM
45 | Cc1nc2nc(COc3ccccc3)[nH]n2c(=O)c1Cc1ccccc1 | -1.2%
46 | CCN(CC)c1ccc(C(=O)c2cnc(/N=C/N(C)C)s2)cc1 | -1.69%
47 | CCOC(=O)N1CCC(N2Cc3cccc(C(=O)Nc4c(C)cccc4CC)c3C2=O)CC1 | -15.3%
48 | NC(=O)c1ccc(NC(=O)Cc2ccc(S(=O)(=O)N3CCCCC3)cc2)cc1 | 17.4%
49 | O=C(CSc1ncnc2sc(-c3ccccc3)cc12)NC1CCS(=O)(=O)C1 (stereo not drawn) | 4.77%
50 | CCOc1ccccc1N1CC(C(=O)Nc2ccccc2N2CCOCC2)CC1=O (stereo not drawn) | 15.3%
51 | Cc1ccc(S(=O)(=O)N2CCOC2CNC(=O)C(=O)NCc2ccc(Cl)cc2)cc1 (stereo not drawn) | 10.7%
52 | Cc1ccc(SCCC(=O)Nc2cc(C)on2)cc1 | 12.6%
53 | CCOC(=O)COc1ccc(S(=O)(=O)N2CCN(c3ccccc3)CC2)cc1 | 5.53%
54 | Cc1cc(C)n2nc(SCC(=O)N3CCC4(CC3)OCCO4)nc2n1 | 17.6%
55 | COc1ccc(NC(=O)CCCn2c(=O)c3sccc3n(Cc3ccc(C)cc3C)c2=O)cc1 | -4.43%
56 | COC(=O)c1ccc(NC(=O)CSc2nnc(COc3c(C)cccc3C)o2)cc1 | 8.75%
57 | Cc1ccc(-c2c(C(=O)O)c(C(=O)O)c3n2CSC3)cc1 | 10.1%
58 | O=C(COC(=O)c1cncc(Br)c1)NC1CCCCCC1 | -4.91%
59 | COC(=O)c1c(NC(=O)c2ccco2)sc2c1CC(C)(C)NC2(C)C | -3.4%
60 | CN(C(=O)COC(=O)c1ccc2c(=O)n3c(nc2c1)CCC3)C1CCS(=O)(=O)C1 (stereo not drawn) | 8.18%
61 | O=C(CSc1nnc(CNC(=O)c2c(F)cccc2Cl)o1)Nc1ccccc1 | 6.11%
62 | CC(C)Nc1ccc(-n2nc3ccccc3[n+]2[O-])cc1 | 9.55%
63 | N#Cc1c(C(F)(F)F)cc(Cc2ccccc2)nc1SCC(=O)NCC(=O)O | 0.688%
64 | COc1ccc(OC)c(NC(=O)CSc2nnc(-c3ccco3)n2-c2ccc(C(=O)O)cc2)c1 | -3.19%
65 | COCCCNC(=O)C1CC(=O)OC1c1ccc(OC)c(OC)c1 (stereo not drawn) | 1.68%
66 | CC1(c2ccccc2Cl)NC(=O)N(CC(=O)Nc2cccnc2Cl)C1=O (stereo not drawn) | 4.25%

Row | SMILES | hERG current change (%, negative = inhibition) at 1uM
67 | C/C(Cc1ccccc1)=N\NC(=O)c1ccc(F)cc1 | 16.2%
68 | COc1ccc(C(C)=O)cc1CSc1nnc2c(Cl)cc(Cl)cn12 | 6.65%
69 | CN(C(=O)c1ccccc1)C1(C)CCS(=O)(=O)C1 (stereo not drawn) | 1.51%
70 | Cc1c(O)ccc(/C(Cc2ccc3ccccc3n2)=N\N)c1O | 11.3%
71 | CC(C)NS(=O)(=O)c1ccc2c3c(cccc13)CC2 | 11.9%
72 | CCN(CC)C(=O)CN1CCN(c2ncccn2)CC1.O=C(O)C(=O)O | 0.916%
73 | COc1ccc(NC(=O)C2CCCN2C(=O)Oc2ccccc2)cc1 (stereo not drawn) | 12.8%
74 | c1ccc2c(CN3CCCCC3)c[nH]c2c1 | 6.25%
75 | CC(C)(C)c1nnc(NC(=O)COc2ccc3c(c2)OCO3)s1 | 4.25%
76 | COc1ccc(C2=NOC(CNC(N)=S)C2)cc1 (stereo not drawn) | 3.37%
77 | CC1(C)C=C2[C@H]3CC[C@@H]4[C@@]5(C)CCC(=O)C(C)(C)[C@@H]5CC[C@@]4(C)[C@]3(C)CC[C@@]2(C(=O)O)CC1 | 13.4%
78 | O=C(Nc1ccnn1C1CCN(CCCc2ccccc2)CC1)c1ccccc1 | -70.9%
79 | CS/C(=C\[N+](=O)[O-])Nc1ccc(OC(F)(F)F)cc1 | 8.9%
80 | CCOc1ccc(N(CC(=O)N2CC=C(c3ccccc3)CC2)S(=O)(=O)c2c(C)noc2C)cc1 | 1.27%
81 | CCOc1nc(C)ccc1-c1noc(-c2ccco2)n1 | 14.6%
82 | Cc1ccc(C)c(S(=O)(=O)Nc2ccc(S(=O)(=O)Nc3ncccn3)cc2)c1 | 7.95%
83 | CCOC(=O)c1c(C)[nH]c(C(=O)OCC(=O)N(C)C2CCS(=O)(=O)C2)c1C (stereo not drawn) | 14.7%
84 | CC1=C(C(=O)Nc2ccccc2)C(c2ccc3c(c2)OCO3)C2=C(CCCC2=O)N1 (stereo not drawn) | 2.37%
85 | COC(=O)c1ccc(Oc2coc3cc(OCc4ccc([N+](=O)[O-])cc4)ccc3c2=O)cc1 | 17.4%
86 | COc1ccc(-c2cc(C)nc3nc(N)nn23)cc1 | 8.6%
87 | O=C(Nc1ccc(S(=O)(=O)N2CCCCC2c2cccnc2)cc1)c1c(F)cccc1F (stereo not drawn) | -0.692%
